Laboratory results as given in PubChem BioAssay AID360 (National Center for Advancing Translational Sciences (NCATS), 2006).
Among all 48,000 compounds or so, about 550 (1.1%) were called active. Not shown: some 4% with an inconclusive outcome. No stated cut-off is given here; in the data, active means potency below about 15 µM; inconclusive means mostly about 16 µM to 33 µM; inactive means weaker than that. Some of the results follow.

biological target: Lysosomal acid glucosylceramidase (Homo sapiens) (UniProt P04062); test: Glucocerebrosidase; details: purified enzyme, resorufin glucoside fluorescence (screen aimed at inhibitors), 20 min; series mostly up to 77 µM;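 further: the screen sought inhibitors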
Summary of the method: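 Wild-type enzyme at 0.2 nM final in 50mM citric acid/KH2PO4, 10mM sodium taurocholate, 0.01% tween-20, pH 5.9, with resorufin beta-D-glucopyranoside at 30 uM final. Compounds titrated, 20 min at RT, red fluorescence read; AC50 from titration.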
Potency means the concentration at half of the fitted maximal effect.

UniProt P04062, sequence (P04062 whole entry, looked up): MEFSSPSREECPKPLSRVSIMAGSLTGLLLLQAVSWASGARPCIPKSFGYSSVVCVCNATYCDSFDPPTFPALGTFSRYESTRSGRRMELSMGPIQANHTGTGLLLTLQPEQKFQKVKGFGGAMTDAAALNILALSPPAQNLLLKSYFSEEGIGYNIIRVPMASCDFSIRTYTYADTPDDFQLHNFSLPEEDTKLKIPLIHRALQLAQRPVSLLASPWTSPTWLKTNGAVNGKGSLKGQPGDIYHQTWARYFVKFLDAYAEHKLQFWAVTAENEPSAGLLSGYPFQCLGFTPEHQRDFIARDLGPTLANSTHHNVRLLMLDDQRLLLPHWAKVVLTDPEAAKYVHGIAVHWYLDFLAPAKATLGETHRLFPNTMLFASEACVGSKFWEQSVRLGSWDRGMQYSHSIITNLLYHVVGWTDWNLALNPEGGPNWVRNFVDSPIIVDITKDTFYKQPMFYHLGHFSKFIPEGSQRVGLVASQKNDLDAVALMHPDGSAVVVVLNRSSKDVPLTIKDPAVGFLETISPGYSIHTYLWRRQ

Structure (SMILES)	Potency
COc1ccccc1Nc1nc2ccccc2[nH]1	inactive: > 76.9 µM
CCOc1ccc(NC(=O)Nc2ccc(N(C)C(C)=O)cc2)cc1	inactive: > 76.9 µM
COc1ccc(N=C(N(C)C)P(=O)(N(C)C)N(C)C)cc1	inactive: > 76.9 µM
O=C(CCn1c(=O)oc2ccccc21)N1CCOCC1	inactive: > 76.9 µM
CCN(CC(=O)NC1CCCCCC1)S(=O)(=O)c1ccccc1	inactive: > 76.9 µM
CCCOc1ccc(N2CC(C(=O)Nc3ccccn3)CC2=O)cc1 (stereo not given)	inactive: > 76.9 µM
COc1ccc(-n2c(N)c(C(=O)NCC3CCCO3)sc2=S)cc1 (stereo not given)	inactive: > 76.9 µM
O=C(COC(=O)c1ccco1)NCc1cccs1	inactive: > 76.9 µM
C=CCn1c(Br)nc2c1c(=O)n(C)c(=O)n2C	inactive: > 76.9 µM
COc1ccc(-c2nc(-c3ccccc3OC)no2)cc1OC	inactive: > 76.9 µM
CCOC(=O)c1c(-c2ccccc2)csc1NC(=O)CSc1nnnn1C	inactive: > 76.9 µM
CCN(CC)S(=O)(=O)c1ccc(C(=O)OCC(=O)N2CCN(C(=O)c3ccco3)CC2)cc1	inactive: > 76.9 µM
CCOC(=O)N1CCN(S(=O)(=O)c2ccc(C)c(C)c2)CC1	inactive: > 76.9 µM
CC12CC(NC(=O)N1Cc1ccccc1)c1ccccc1O2 (stereo not given)	inactive: > 76.9 µM
Cc1nnc(N(Cc2ccco2)C(=O)c2ccno2)s1	inactive: > 76.9 µM
COc1cccc(N(CC(=O)O)S(=O)(=O)c2ccccc2)c1	inactive: > 76.9 µM
COC(=O)c1ccc(/C(O)=C(\C#N)c2nc3ccccc3s2)cc1	inactive: > 76.9 µM
Cc1cc(C)cc(OCC(=O)N2CCCCCC2)c1	inactive: > 76.9 µM
Cc1[nH]nc(N=Cc2c(O)n(C)c(=O)n(C)c2=O)c1-c1ccccc1	inactive: > 76.9 µM
Brc1ccccc1-c1nnc(CSc2nnc3sc4ccccc4n23)o1	inactive: > 76.9 µM
CCOC(=O)c1cccc(NC(=O)CCNS(=O)(=O)c2ccc3c(c2)CCN3C(=O)CC)c1	inactive: > 76.9 µM
O=C(c1cc2ccccc2oc1=O)N(Cc1cccs1)C1CCS(=O)(=O)C1 (stereo not given)	inactive: > 76.9 µM
Cc1ccc(C)c(Cn2nnc3c(=O)[nH]c(C4CCN(C(=O)c5cccs5)CC4)nc32)c1	inactive

Structure (SMILES)	Potency
CCC(OC(=O)c1ccco1)C(=O)NCc1ccc(C)cc1 (stereo not given)	inactive: > 76.9 µM
CCCCn1c(SCC(=O)Nc2ccc3c(c2)OCO3)nc2c1c(=O)n(C)c(=O)n2C	inactive: > 76.9 µM
O=C(CCS(=O)(=O)Cc1ccccc1)NCc1ccco1	inactive: > 76.9 µM
COCCNC(=O)CN(C(=O)CCC(=O)Nc1cc(C)on1)c1ccc(C)cc1C	inactive: > 76.9 µM
CCOC(=O)n1ccc(C(=O)Nc2ccccc2F)n1	inactive: > 76.9 µM
COc1cccc(NC(=O)C(C#N)Cc2ccncc2)c1 (stereo not given)	inactive: > 76.9 µM
Cc1ccc(S(=O)(=O)Nc2ccc(C(=O)Nc3cc(C)on3)cc2)cc1	active: 0.155 µM
CCCS(=O)(=O)N1CCCC(C(=O)NC(C)c2ccc3c(c2)OCCO3)C1 (stereo not given)	inactive: > 76.9 µM
CCN(CC)S(=O)(=O)c1cc(C(=O)Nc2nncs2)c(Cl)cc1Cl	inactive: > 76.9 µM
O=C(NCc1ccco1)c1cc(-c2ccc(Cl)cc2)on1	inactive: > 76.9 µM
CN(C)c1ccc(C(=S)NCc2ccco2)cc1	inactive: > 76.9 µM
COCCNC(=O)c1c[nH]c2ccc(S(=O)(=O)N3CCC4(CC3)OCCO4)cc2c1=O	inactive: > 76.9 µM
O=C1C2C3C=CC(C3)C2C(=O)N1CCCCN1C(=O)C2C3C=CC(C3)C2C1=O (stereo not given)	inactive: > 76.9 µM
COc1ccc(S(=O)(=O)NCCCCCC(=O)NCCCN2CCOCC2)cc1	inactive: > 76.9 µM
O=C1CN(c2ccccc2Cl)C(=O)CN1c1ccccc1Cl	inactive: > 76.9 µM
Cc1cc(C)nc(N2CCCC(C(=O)NCCc3ccc(F)cc3)C2)n1 (stereo not given)	inactive: > 76.9 µM
CCc1nnc(NC(=O)c2ccc(S(=O)(=O)N3CCCCCC3)cc2)s1	active: 1.43 µM
Cc1ccc(S(=O)(=O)N2CCN(C(=O)CCC(=O)OCC(=O)Nc3cccc(C#N)c3)CC2)cc1	inactive: > 76.9 µM
O=C(O)CCS(=O)(=O)Cc1ccccc1F	inactive: > 76.9 µM
CN(C)C(CNC(=O)Nc1cccc(Cl)c1)c1cccnc1 (stereo not given)	inactive: > 76.9 µM
COc1ccc(-c2cc3nc4c(c(=O)n3[nH]2)CCC4)cc1	inactive: > 76.9 µM
CCCCN(C)CCCNC(=O)CCn1nc(-c2ccccc2)ccc1=O	inactive: > 76.9 µM
CC(C)Sc1nc(N)c2c3c(sc2n1)CN(C)CC3	inactive: > 76.9 µM

Structure (SMILES)	Potency
O=C(Cn1cnc2c(oc3ccccc32)c1=O)N1CCN(c2ccccc2)CC1	inactive: > 76.9 µM
CCn1ncc(NC(=O)Nc2cccc(C(F)(F)F)c2)c1C(N)=O	inactive: > 76.9 µM
CN(Cc1ccccc1)C(=O)c1ccccc1NC(=O)c1ccco1	inactive: > 76.9 µM
O=C(Cn1cnc2ccccc21)NCc1ccccc1	inactive: > 76.9 µM
COC(=O)c1ccccc1NC(=O)Cn1c(=O)oc2ccc(Cl)cc21	inactive: > 76.9 µM
Cn1c(=O)cc(OCCCC(=O)NCc2ccco2)c2ccccc21	inactive: > 76.9 µM
COc1cccc(CNC(=O)CCCNS(=O)(=O)c2cccs2)c1	inactive: > 76.9 µM
COc1ccc2cc(CN(CCc3ccccc3)Cc3nnnn3CC3CCCO3)c(=O)[nH]c2c1 (stereo not given)	inactive: > 76.9 µM
CNC(=O)NCC12CC3CC(CC(C3)C1)C2	inactive: > 76.9 µM
CN=C1SC(CC(=O)Nc2ccc(N3CCOCC3)cc2)C(=O)N1C (stereo not given)	inactive: > 76.9 µM
Cc1ccc(-c2nn3c(C)nnc3s2)cc1NC(=O)CSc1ccc(Cl)cc1	inactive: > 76.9 µM
CC(C)(C)NC(=O)COC(=O)c1ccc(S(=O)(=O)N2CCCCCC2)cc1	inactive: > 76.9 µM
O=C(Nc1nc2ccc(S(=O)(=O)N3CCCCC3)cc2s1)C1CCCO1 (stereo not given)	inactive: > 76.9 µM
CS(=O)(=O)N(CC(=O)N1CCN(c2ccccc2)CC1)C1CCCCC1	inactive: > 76.9 µM
Cc1ccc2c(c1)N(C(C)C(=O)NCCc1ccccc1)C(=O)CO2 (stereo not given)	inactive: > 76.9 µM
Cc1ccccc1-c1nnn(CC(=O)c2ccc(S(=O)(=O)N3CCCC3)cc2)n1	inactive: > 76.9 µM
COCCNC(=O)CN1CCN(C(c2ccccc2)c2ccccc2)CC1	inactive: > 76.9 µM
c1ccc(OCCCn2nnc(-c3ccc(N4CCOCC4)cc3)n2)cc1	inactive: > 76.9 µM
O=C(Nc1ccccc1-c1ccccc1)C1CCCN(c2ncccn2)C1 (stereo not given)	inactive: > 76.9 µM
COc1ccc2nc(N3CCCC(C(=O)NCCCN4CCN(C)CC4)C3)sc2c1 (stereo not given)	inactive: > 76.9 µM
CCOc1ccc(OCC)c(NS(=O)(=O)c2ccc3c(c2)n(C)c(=O)c(=O)n3C)c1	inactive: > 76.9 µM
CCOC(=O)C1=C(C)NC2=C(C(=O)CCC2)C1c1ccsc1 (stereo not given)	inactive: > 76.9 µM
Cc1ccc(S(=O)(=O)N2c3ccc(S(N)(=O)=O)cc3CC2C)cc1 (stereo not given)	inactive: > 76.9 µM

Structure (SMILES)	Potency
COc1ccc(OC)c(-n2nnnc2SCC(=O)Nc2nc(C)c(C)s2)c1	inactive
COC(=O)C1CCN(C(=O)COc2cc3sc(C)nc3c3sccc23)CC1	inactive: > 76.9 µM
COc1ccccc1NC(=O)CSc1nnc(C)n1CCc1ccccc1	inactive: > 76.9 µM
O=C(NCCCNCCCNC(=O)c1ccccn1)c1ccccn1	inactive: > 76.9 µM
Cc1ccc(S(=O)(=O)N2CCCC2C(=O)Nc2nc3c(s2)CCCC3)cc1 (stereo not given)	inactive: > 76.9 µM
Cc1cccc(N2CCN(S(=O)(=O)c3ccc4c(c3)CCC(=O)N4)CC2C)c1 (stereo not given)	inactive: > 76.9 µM
O=c1c2cccc3c2c(nn1CN1CCOCC1)-c1ccccc1-3	inactive: > 76.9 µM
Cc1ccc(-n2nnnc2SCC(=O)NCCC2=CCCCC2)c(C)c1	inactive: > 76.9 µM
O=C(Cc1c(C(=O)O)[nH]c2ccc(Cl)cc12)Nc1ccc2c(c1)OCCO2	inactive: > 76.9 µM
CCCC(=O)NC(Nc1ccc(S(=O)(=O)Nc2ncccn2)cc1)(C(=O)OCC)C(F)(F)F (stereo not given)	inactive: > 76.9 µM
CCC(C)(C)NC(=O)C(OC(=O)c1cc2sccc2n1C)c1ccc(OC)cc1 (stereo not given)	inactive: > 76.9 µM
Cn1cccc1C(=O)NC(=O)CSc1nc2ccccc2s1	inactive: > 76.9 µM
Cn1cccc1C(=S)N1CCOCC1	inactive: > 76.9 µM
O=C(COc1ccccc1)Nn1cnc2ccccc21	inactive: > 76.9 µM
O=C(NC1CC1)C1CCC(=O)N1C1CCCC1 (stereo not given)	inactive: > 76.9 µM
CCCCNC(=O)c1sc2nc(C)cc(COC)c2c1-n1cccc1	inactive: > 76.9 µM
CCOC(=O)c1cnc(Nc2nc3ccccc3o2)nc1CSc1nnc(C)s1	inactive: > 76.9 µM
CCOc1ccc2nc(SC(C)C(N)=O)[nH]c2c1 (stereo not given)	inactive: > 76.9 µM
Cc1ccc(NC(=O)CSc2nnc(-c3ccccc3C)o2)cc1C	inactive: > 76.9 µM
COc1ccc(NC(C)=O)cc1NC(=O)CN1CCN(CC(=O)Nc2ccccc2Cl)CC1	inactive: > 76.9 µM
O=C(O)C1(NS(=O)(=O)c2ccc(F)c(Cl)c2)CCCCC1	inactive: > 76.9 µM
